The densities may have been worked out from excess volumes.
Test: xn = mol fraction of the nth substance listed
Settings: 101 kPa

CC(O)C(=O)[O-].[NH3+]CCO (configuration not stated) + CCO
mass density [kg/m3]
Settings	x2 = 0.0543	x2 = 0.1051	x2 = 0.206	x2 = 0.3151	x2 = 0.4144	x2 = 0.5122	x2 = 0.6116	x2 = 0.7232	x2 = 0.8109	x2 = 0.9528
288.15 K	–	1189.1	1167.8	1142.7	–	1083.6	1045.7	–	943.8	–
290.65 K	1195.6	1187.5	–	1141.1	1113.6	1081.9	1043.9	991.8	941.9	840.5
293.15 K	1194.1	1186	1164.6	1139.4	–	–	1042.2	990	940	838.4
295.65 K	1192.6	1184.4	1163	1137.8	1110.3	1078.5	1040.4	988.1	938.1	836.3
298.15 K	–	–	1161.4	1136.1	1108.7	–	1038.6	986.3	936.1	834.2
300.65 K	–	–	1161.4	1136.1	1108.7	1076.8	1038.6	986.3	936.1	834.2
303.15 K	1187.9	1179.7	–	–	1105.4	1073.4	1035.1	–	932.1	830
305.65 K	1186.3	1178.1	1156.6	1131.3	–	–	1033.3	980.7	930.2	827.9
308.15 K	–	1176.6	1155	1129.7	1102.1	1070	1031.5	978.8	928.4	825.8
310.65 K	1183.2	1175	1153.5	1128.1	1100.4	1068.2	1029.7	–	926.4	–
313.15 K	–	1173.4	1151.9	1126.5	1098.7	1066.5	1027.9	975	924.5	821.5
315.65 K	–	1171.9	1150.3	1124.9	1097.1	1064.8	1026.1	973.2	922.5	–
318.15 K	–	1170.4	1148.8	–	1095.4	1063.1	1024.3	971.3	920.5	817.1
320.65 K	1177.1	1168.9	1147.2	1121.6	–	1061.3	1022.5	–	918.5	814.8
323.15 K	1175.6	1167.3	1145.6	1120	1092.1	1059.6	1020.7	967.5	916.5	–

CC(O)C(=O)[O-].[NH3+]CCO (configuration not stated) + CO
mass density [kg/m3]
Settings	x2 = 0.0675	x2 = 0.1469	x2 = 0.2586	x2 = 0.3811	x2 = 0.4275	x2 = 0.518	x2 = 0.6083	x2 = 0.7069	x2 = 0.7972	x2 = 0.8985
288.15 K	1199.2	–	1173.5	1150.1	1140.1	1117.8	1089.2	1050.6	–	920.9
290.65 K	1197.7	1187.5	1172	–	1138.5	1116.2	1087.5	1048.8	998.7	918.9
293.15 K	–	1185.9	1170.4	–	–	1114.5	1085.8	1046.9	996.8	916.8
295.65 K	1194.6	1184.4	–	1145.2	–	–	1084	–	994.9	–
298.15 K	1193.1	1182.8	1167.2	–	1133.7	1111.2	1082.3	–	992.9	–
300.65 K	1191.5	1181.2	1165.6	1142	1132.1	–	1080.5	1041.5	991	910.6
303.15 K	1190	1179.6	1164	1140.4	1130.5	–	–	1039.7	988.9	908.5
305.65 K	1188.4	1178.1	1162.4	1138.8	1128.8	1106.2	1077.1	1037.9	986.4	906.4
308.15 K	1186.9	1176.5	1160.9	1137.2	1127.2	1104.5	1075.3	–	985.2	904.3
310.65 K	1185.3	1174.9	1159.3	1135.6	1125.6	1102.8	1073.6	1034.2	983.4	902.2
313.15 K	1183.8	1173.4	–	1134	1123.9	1101.1	–	1032.4	–	–
315.65 K	1182.3	1171.9	1156.2	1132.4	–	1099.4	1070.1	1030.5	979.5	898
318.15 K	1180.8	–	1154.6	1130.7	1120.7	1097.7	1068.3	1028.6	–	895.8
320.65 K	1179.3	1168.9	1153	1129.1	1119	1096.1	1066.6	1026.8	975.6	893.5
323.15 K	–	1167.3	1151.5	1127.5	–	1094.4	1064.8	1024.9	973.5	890.6

CC(O)C(=O)[O-].[NH3+]CCO (configuration not stated) + O
mass density [kg/m3]
Settings	x1 = 0.0088	x1 = 0.0135	x2 = 0.3197	x2 = 0.5253	x2 = 0.6892	x2 = 0.9027	x2 = 0.9293	x2 = 0.949	x2 = 0.9707
288.15 K	1015.4	–	–	1191.3	–	1109.2	1089.8	1071.5	1045.9
290.65 K	1014.9	1022.2	–	1189.7	1173	–	1088.7	1070.5	1045.1
293.15 K	1014.3	1021.5	1196.9	1188.2	1171.5	1106.7	1087.6	1069.6	–
295.65 K	1013.6	1020.8	1195.3	1186.7	1170	–	1086.4	1068.5	1043.4
298.15 K	1012.9	1020.1	1193.8	–	1168.5	1104.3	1085.3	1067.5	1042.5
300.65 K	1012.1	–	1192.3	1183.7	–	–	1084.1	–	1041.6
303.15 K	1011.3	1018.4	1190.7	1182.2	1165.5	–	1082.9	–	1040.6
305.65 K	1010.5	–	1189.2	1180.7	1164	–	1081.7	1064.2	1039.6
308.15 K	1009.6	1016.6	–	1179.2	1162.5	1099	1080.4	1063	1038.6
310.65 K	1008.6	–	1186.2	–	1160.9	–	1079.2	1061.8	1037.5
313.15 K	1007.6	–	1184.7	–	1159.4	1096.3	1077.9	1060.6	1036.4
315.65 K	1006.6	1013.5	1183.2	1174.6	–	1094.9	1076.6	1059.4	–
318.15 K	1005.5	1012.4	1181.6	–	1156.3	1093.5	–	1058.1	–
320.65 K	–	1011.3	1180.1	1171.5	1154.8	1092.1	–	–	1032.8
323.15 K	1003.2	1010.1	1178.6	–	–	1090.7	1072.5	1055.5	–

Source: a compilation of properties of binary mixtures (doi:10.5541/ijot.303607)
